According to article PMC7454948:
These are yes or no findings as the source states them, for the method shown. In cells and extracts the contact can be indirect. Some results given as binding are weak or reduced against the parent protein; the word gives no strength. Where a sequence is shown, tags or fusion partners need not be part of it.

By UniProt entry, the sequences of proteins in these tests, tags left out.
UniProt P38903: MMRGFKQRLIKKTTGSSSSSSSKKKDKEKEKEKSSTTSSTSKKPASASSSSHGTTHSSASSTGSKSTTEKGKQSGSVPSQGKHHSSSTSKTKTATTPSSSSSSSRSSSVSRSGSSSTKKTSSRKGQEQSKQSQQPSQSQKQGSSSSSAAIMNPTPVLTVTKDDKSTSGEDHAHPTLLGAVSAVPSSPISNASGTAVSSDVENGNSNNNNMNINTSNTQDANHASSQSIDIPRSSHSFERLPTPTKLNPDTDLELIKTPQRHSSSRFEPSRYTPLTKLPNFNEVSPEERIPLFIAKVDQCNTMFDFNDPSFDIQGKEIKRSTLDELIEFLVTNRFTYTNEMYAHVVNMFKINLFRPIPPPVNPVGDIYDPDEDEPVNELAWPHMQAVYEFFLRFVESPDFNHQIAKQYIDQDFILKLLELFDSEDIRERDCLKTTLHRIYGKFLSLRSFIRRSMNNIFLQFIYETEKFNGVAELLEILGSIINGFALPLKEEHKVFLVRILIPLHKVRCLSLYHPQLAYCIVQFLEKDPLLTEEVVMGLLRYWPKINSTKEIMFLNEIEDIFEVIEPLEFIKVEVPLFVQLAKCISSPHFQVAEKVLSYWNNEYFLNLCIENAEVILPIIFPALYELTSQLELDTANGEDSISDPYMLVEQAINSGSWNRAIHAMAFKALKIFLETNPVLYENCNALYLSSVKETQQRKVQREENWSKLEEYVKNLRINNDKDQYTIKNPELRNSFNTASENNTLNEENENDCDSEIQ

T1: GST-Sgo1 N51I (S. cerevisiae) (UniProt Q08490)
T1 sequence: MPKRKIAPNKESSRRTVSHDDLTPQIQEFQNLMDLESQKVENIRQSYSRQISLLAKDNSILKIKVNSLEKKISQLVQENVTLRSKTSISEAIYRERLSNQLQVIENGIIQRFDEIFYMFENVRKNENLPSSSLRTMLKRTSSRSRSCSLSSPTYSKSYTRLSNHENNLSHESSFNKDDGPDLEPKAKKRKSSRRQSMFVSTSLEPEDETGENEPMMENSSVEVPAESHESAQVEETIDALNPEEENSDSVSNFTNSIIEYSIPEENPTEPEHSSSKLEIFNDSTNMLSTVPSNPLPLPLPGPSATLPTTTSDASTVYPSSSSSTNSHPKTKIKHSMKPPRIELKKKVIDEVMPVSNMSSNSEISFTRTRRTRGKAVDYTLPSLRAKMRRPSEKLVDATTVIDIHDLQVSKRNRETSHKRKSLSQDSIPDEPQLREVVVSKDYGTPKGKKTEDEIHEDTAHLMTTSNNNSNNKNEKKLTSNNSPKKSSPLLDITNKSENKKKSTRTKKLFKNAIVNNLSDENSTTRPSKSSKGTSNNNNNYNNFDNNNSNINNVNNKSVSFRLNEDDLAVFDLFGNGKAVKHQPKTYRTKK

T2: GST-Sgo1wt (full length Sgo1-GST) (S. cerevisiae) (UniProt Q08490)
T2 sequence: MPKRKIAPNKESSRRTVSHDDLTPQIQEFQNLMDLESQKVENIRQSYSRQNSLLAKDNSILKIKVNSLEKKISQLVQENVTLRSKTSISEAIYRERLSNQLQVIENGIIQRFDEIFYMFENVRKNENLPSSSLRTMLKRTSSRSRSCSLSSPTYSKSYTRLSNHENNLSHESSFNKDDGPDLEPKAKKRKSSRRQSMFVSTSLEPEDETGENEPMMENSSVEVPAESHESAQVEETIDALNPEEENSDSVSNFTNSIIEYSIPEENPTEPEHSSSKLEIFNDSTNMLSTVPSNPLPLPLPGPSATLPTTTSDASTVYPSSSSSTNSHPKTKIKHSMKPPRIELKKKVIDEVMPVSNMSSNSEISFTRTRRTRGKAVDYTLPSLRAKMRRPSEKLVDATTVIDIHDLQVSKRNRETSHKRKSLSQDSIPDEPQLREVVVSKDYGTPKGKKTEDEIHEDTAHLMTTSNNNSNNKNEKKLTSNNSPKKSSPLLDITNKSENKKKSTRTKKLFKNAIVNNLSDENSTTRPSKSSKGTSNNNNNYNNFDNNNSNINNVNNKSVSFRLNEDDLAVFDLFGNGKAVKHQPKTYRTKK

T3: GST-Sgo1 1–163 (S. cerevisiae) (UniProt Q08490)
T3 sequence: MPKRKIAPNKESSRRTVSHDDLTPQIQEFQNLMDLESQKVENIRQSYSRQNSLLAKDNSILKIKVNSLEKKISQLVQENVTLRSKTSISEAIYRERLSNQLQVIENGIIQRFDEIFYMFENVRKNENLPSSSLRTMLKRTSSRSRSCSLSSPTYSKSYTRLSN

T4: Smc2-GFP (S. cerevisiae) (UniProt P38989)
T4 sequence: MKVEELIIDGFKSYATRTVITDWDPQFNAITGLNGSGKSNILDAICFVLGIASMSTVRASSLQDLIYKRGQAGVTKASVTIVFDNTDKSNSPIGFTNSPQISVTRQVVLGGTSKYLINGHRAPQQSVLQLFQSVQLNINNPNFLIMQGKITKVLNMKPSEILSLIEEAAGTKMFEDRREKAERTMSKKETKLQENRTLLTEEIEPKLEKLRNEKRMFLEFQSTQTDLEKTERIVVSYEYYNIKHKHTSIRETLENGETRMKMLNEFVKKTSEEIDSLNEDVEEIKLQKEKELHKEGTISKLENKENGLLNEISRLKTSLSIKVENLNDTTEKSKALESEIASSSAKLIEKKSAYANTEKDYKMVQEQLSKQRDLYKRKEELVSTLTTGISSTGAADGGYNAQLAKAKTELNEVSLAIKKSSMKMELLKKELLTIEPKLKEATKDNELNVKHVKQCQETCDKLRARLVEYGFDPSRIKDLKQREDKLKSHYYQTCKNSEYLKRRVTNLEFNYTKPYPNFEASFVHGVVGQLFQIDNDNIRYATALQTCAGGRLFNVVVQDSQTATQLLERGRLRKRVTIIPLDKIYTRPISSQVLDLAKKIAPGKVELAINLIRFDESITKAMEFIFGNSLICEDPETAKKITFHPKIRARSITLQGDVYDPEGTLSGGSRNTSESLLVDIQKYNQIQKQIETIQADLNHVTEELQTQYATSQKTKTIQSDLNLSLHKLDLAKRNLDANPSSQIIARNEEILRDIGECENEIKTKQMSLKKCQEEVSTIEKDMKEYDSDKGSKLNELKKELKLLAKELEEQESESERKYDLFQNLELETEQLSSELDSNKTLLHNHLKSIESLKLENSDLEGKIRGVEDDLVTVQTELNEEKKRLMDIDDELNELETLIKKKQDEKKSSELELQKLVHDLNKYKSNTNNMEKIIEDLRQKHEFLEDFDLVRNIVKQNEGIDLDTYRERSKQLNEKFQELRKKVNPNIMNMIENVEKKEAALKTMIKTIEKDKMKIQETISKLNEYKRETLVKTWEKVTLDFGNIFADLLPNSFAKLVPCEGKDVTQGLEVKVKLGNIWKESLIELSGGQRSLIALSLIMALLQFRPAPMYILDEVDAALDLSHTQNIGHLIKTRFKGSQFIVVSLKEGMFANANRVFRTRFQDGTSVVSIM

T5: Brn1-GFP (S. cerevisiae) (UniProt P38170)
T5 sequence: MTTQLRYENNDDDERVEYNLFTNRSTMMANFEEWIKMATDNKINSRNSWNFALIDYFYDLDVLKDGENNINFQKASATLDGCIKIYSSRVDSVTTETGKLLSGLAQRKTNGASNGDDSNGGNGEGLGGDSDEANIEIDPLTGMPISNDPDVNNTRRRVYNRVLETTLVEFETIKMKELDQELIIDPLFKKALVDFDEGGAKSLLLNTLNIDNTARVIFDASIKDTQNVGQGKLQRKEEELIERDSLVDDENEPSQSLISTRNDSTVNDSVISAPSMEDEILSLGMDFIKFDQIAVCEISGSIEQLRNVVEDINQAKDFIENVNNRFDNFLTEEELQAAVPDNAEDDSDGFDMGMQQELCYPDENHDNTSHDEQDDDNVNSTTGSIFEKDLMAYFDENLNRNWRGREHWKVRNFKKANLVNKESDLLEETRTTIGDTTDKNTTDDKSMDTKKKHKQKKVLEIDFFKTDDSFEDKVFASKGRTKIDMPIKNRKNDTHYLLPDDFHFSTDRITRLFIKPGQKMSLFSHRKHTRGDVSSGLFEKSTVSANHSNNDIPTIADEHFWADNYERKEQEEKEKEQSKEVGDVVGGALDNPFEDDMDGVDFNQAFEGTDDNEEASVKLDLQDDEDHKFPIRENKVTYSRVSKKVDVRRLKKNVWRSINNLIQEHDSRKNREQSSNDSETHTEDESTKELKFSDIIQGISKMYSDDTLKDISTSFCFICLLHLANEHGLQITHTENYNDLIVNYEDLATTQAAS


How the values were obtained:
[1] = biological target: T1, GST-Sgo1 N51I (S. cerevisiae); experiment: pull-down; GST-Sgo1 proteins (100 ug) on glutathione magnetic beads, rotated with yeast lysate 2 h at 4°C; eluates immunoblotted with anti-FLAG (Ycg1), anti-HA (Smc2), anti-MYC (Rts1); only the target purified
[2] = biological target: T2, GST-Sgo1wt (full length Sgo1-GST) (S. cerevisiae); experiment: as above
[3] = biological target: T3, GST-Sgo1 1–163 (S. cerevisiae); experiment: as above
[4] = biological target: T4, Smc2-GFP (S. cerevisiae); experiment: co-IP; GFP-Trap agarose beads, yeast lysates in native lysis buffer (20 mM HEPES pH 7.5, 0.5% Triton X-100, 200 mM NaCl), 2 hours at 4°C; Smc2-GFP or Brn1-GFP pulled down, Sgo1-TAP detected with PAP
[5] = biological target: T5, Brn1-GFP (S. cerevisiae); experiment: as above

Molecule | binding [1] | binding [2] | binding [3] | binding [4] | binding [5]
Rts1-9Myc (from UniProt P38903 1-757) | no binding | binds | binds |  | 
Sgo1-TAP (protein, UniProt Q08490 1-590) MPKRKIAPNKESSRRTVSHDDLTPQIQEFQNLMDLESQKVENIRQSYSRQNSLLAKDNSILKIKVNSLEKKISQLVQENVTLRSKTSISEAIYRERLSNQLQVIENGIIQRFDEIFYMFENVRKNENLPSSSLRTMLKRTSSRSRSCSLSSPTYSKSYTRLSNHENNLSHESSFNKDDGPDLEPKAKKRKSSRRQSMFVSTSLEPEDETGENEPMMENSSVEVPAESHESAQVEETIDALNPEEENSDSVSNFTNSIIEYSIPEENPTEPEHSSSKLEIFNDSTNMLSTVPSNPLPLPLPGPSATLPTTTSDASTVYPSSSSSTNSHPKTKIKHSMKPPRIELKKKVIDEVMPVSNMSSNSEISFTRTRRTRGKAVDYTLPSLRAKMRRPSEKLVDATTVIDIHDLQVSKRNRETSHKRKSLSQDSIPDEPQLREVVVSKDYGTPKGKKTEDEIHEDTAHLMTTSNNNSNNKNEKKLTSNNSPKKSSPLLDITNKSENKKKSTRTKKLFKNAIVNNLSDENSTTRPSKSSKGTSNNNNNYNNFDNNNSNINNVNNKSVSFRLNEDDLAVFDLFGNGKAVKHQPKTYRTKK |  |  |  | binds | binds
Sgo1-N51I (TAP-tagged, in yeast) (protein, UniProt Q08490 1-590) MPKRKIAPNKESSRRTVSHDDLTPQIQEFQNLMDLESQKVENIRQSYSRQISLLAKDNSILKIKVNSLEKKISQLVQENVTLRSKTSISEAIYRERLSNQLQVIENGIIQRFDEIFYMFENVRKNENLPSSSLRTMLKRTSSRSRSCSLSSPTYSKSYTRLSNHENNLSHESSFNKDDGPDLEPKAKKRKSSRRQSMFVSTSLEPEDETGENEPMMENSSVEVPAESHESAQVEETIDALNPEEENSDSVSNFTNSIIEYSIPEENPTEPEHSSSKLEIFNDSTNMLSTVPSNPLPLPLPGPSATLPTTTSDASTVYPSSSSSTNSHPKTKIKHSMKPPRIELKKKVIDEVMPVSNMSSNSEISFTRTRRTRGKAVDYTLPSLRAKMRRPSEKLVDATTVIDIHDLQVSKRNRETSHKRKSLSQDSIPDEPQLREVVVSKDYGTPKGKKTEDEIHEDTAHLMTTSNNNSNNKNEKKLTSNNSPKKSSPLLDITNKSENKKKSTRTKKLFKNAIVNNLSDENSTTRPSKSSKGTSNNNNNYNNFDNNNSNINNVNNKSVSFRLNEDDLAVFDLFGNGKAVKHQPKTYRTKK |  |  |  | binds | 
Sgo1-13A (TAP-tagged, in yeast) (protein, UniProt Q08490 1-590) MPKRKIAPNKESSRRTVSHDDLTPQIQEFQNLMDLESQKVENIRQSYSRQNSLLAKDNSILKIKVNSLEKKISQLVQENVTLRSKTSISEAIYRERLSNQLQVIENGIIQRFDEIFYMFENVRKNENLPSSSLRTMLKRAAARARACALAAPAYAKAYARLANHENNLSHESSFNKDDGPDLEPKAKKRKSSRRQSMFVSTSLEPEDETGENEPMMENSSVEVPAESHESAQVEETIDALNPEEENSDSVSNFTNSIIEYSIPEENPTEPEHSSSKLEIFNDSTNMLSTVPSNPLPLPLPGPSATLPTTTSDASTVYPSSSSSTNSHPKTKIKHSMKPPRIELKKKVIDEVMPVSNMSSNSEISFTRTRRTRGKAVDYTLPSLRAKMRRPSEKLVDATTVIDIHDLQVSKRNRETSHKRKSLSQDSIPDEPQLREVVVSKDYGTPKGKKTEDEIHEDTAHLMTTSNNNSNNKNEKKLTSNNSPKKSSPLLDITNKSENKKKSTRTKKLFKNAIVNNLSDENSTTRPSKSSKGTSNNNNNYNNFDNNNSNINNVNNKSVSFRLNEDDLAVFDLFGNGKAVKHQPKTYRTKK |  |  |  | binds | binds
Sgo1 S151E (TAP-tagged, in yeast) (protein, UniProt Q08490 1-590) MPKRKIAPNKESSRRTVSHDDLTPQIQEFQNLMDLESQKVENIRQSYSRQNSLLAKDNSILKIKVNSLEKKISQLVQENVTLRSKTSISEAIYRERLSNQLQVIENGIIQRFDEIFYMFENVRKNENLPSSSLRTMLKRTSSRSRSCSLSEPTYSKSYTRLSNHENNLSHESSFNKDDGPDLEPKAKKRKSSRRQSMFVSTSLEPEDETGENEPMMENSSVEVPAESHESAQVEETIDALNPEEENSDSVSNFTNSIIEYSIPEENPTEPEHSSSKLEIFNDSTNMLSTVPSNPLPLPLPGPSATLPTTTSDASTVYPSSSSSTNSHPKTKIKHSMKPPRIELKKKVIDEVMPVSNMSSNSEISFTRTRRTRGKAVDYTLPSLRAKMRRPSEKLVDATTVIDIHDLQVSKRNRETSHKRKSLSQDSIPDEPQLREVVVSKDYGTPKGKKTEDEIHEDTAHLMTTSNNNSNNKNEKKLTSNNSPKKSSPLLDITNKSENKKKSTRTKKLFKNAIVNNLSDENSTTRPSKSSKGTSNNNNNYNNFDNNNSNINNVNNKSVSFRLNEDDLAVFDLFGNGKAVKHQPKTYRTKK |  |  |  | binds | 
